From PubChem BioAssay AID1508624 (National Center for Advancing Translational Sciences (NCATS), 2021)
Where “and” joins values, the source holds several entries; their conditions need not be identical. Identical values can stand only once. Out of some 48,000 compounds screened, about 120 (0.25%) were called active. Another 4% or so got no clear call; they are omitted. Calls follow the shape of the dose curve; as a rule, active = well fitted activation curve with a large enough effect; inconclusive = small, poorly fitted or top-dose-only effect, or another doubt; inactive = no such curve, though single readings can be large or run the other way. This is one part of the list.

Assay: Primary qHTS for Identification of Small Molecule Activators of Huntingtin-Antisense Promoter Activity; also: nearly all actives have a fitted effect of over 55% in size
Details: HEK293 HTT-AS promoter firefly luciferase reporter, 24 h
Method in brief: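 Firefly luciferase signal from promoter-reporter HEK293 cells was scaled between vehicle (0%) and zero RLU (-100%). Compounds were tested at final concentrations of up to 57.5 uM over 24 h at 37 degrees C. PTC124 at 50 uM final served as control inhibitor.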

[1] = at 57.5 µM (top of the series) unless noted

CCCC1=Nc2cc(C(=O)NC3CCC(C)CC3)ccc2Sc2ccccc21 (stereo unspecified)
activity change, positive = activation [1]: inactive: -33.7%

CC(C)(O)C=CC(=O)[C@](C)(O)[C@H]1[C@H](O)C[C@]2(C)[C@@H]3CC=C4[C@@H](C=C(O)C(=O)C4(C)C)[C@]3(C)C(=O)C[C@@]12C
activity change, positive = activation [1]: inactive: -82%

COc1cccc2c1[C@]13CCN(CC4CC4)[C@H](C2)[C@]1(OC)CCC(=O)C3
activity change, positive = activation [1]: inactive: -3.73%

CC(C)(C)NCC(O)c1cc(Cl)c(N)c(C(F)(F)F)c1 (stereo unspecified)
activity change, positive = activation [1]: inactive: -4.68%

Cc1cc(NC(=O)c2cccn(Cc3ccccc3)c2=O)no1
activity change, positive = activation [1]: inactive: 17.3% [at 57.5 µM, percent change from vehicle, -100% = no light]

Nc1c(C(=O)Nc2cccc(Br)c2)sc2nc3c(cc12)N1CCC3CC1
activity change, positive = activation [1]: inactive: -24.5%

c1cc2ccc3cccc4ccc(c1)c2c34
activity change, positive = activation [1]: inactive: 3.17% [at 116 µM, percent change from vehicle, -100% = no light]

CCC1(c2ccccc2)CCC(=O)NC1=O (stereo unspecified)
activity change, positive = activation [1]: inactive: -3.63%

C[C@@H]1CC[C@@]2(OC1)O[C@H]1C[C@H]3[C@@H]4CC=C5C[C@@H](O[C@@H]6O[C@H](CO)[C@@H](O[C@@H]7O[C@@H](C)[C@H](O)[C@@H](O)[C@@H]7O)[C@H](O)[C@@H]6O[C@@H]6O[C@@H](C)[C@H](O)[C@@H](O)[C@@H]6O)CC[C@]5(C)[C@@H]4CC[C@]3(C)[C@@H]1[C@H]2C
activity change, positive = activation [1]: inactive: -15.4%

Oc1ccc2c3c1O[C@H]1c4[nH]c5c(c4C[C@@]4(O)[C@@H](C2)N(CC2CC2)CC[C@]314)C[C@@]1(O)[C@H]2Cc3ccc(O)c4c3[C@@]1(CCN2CC1CC1)[C@H]5O4
activity change, positive = activation [1]: inactive: -3.41%

COc1ccc2c3c1O[C@H]1[C@@H](O)C=C[C@H]4[C@@H](C2)N(C)CC[C@@]341
activity change, positive = activation [1]: inactive: -28.5% [at 116 µM]

CCCCC(CC)COC(=O)c1ccccc1C(=O)OCC(CC)CCCC (stereo unspecified)
activity change, positive = activation [1]: inactive: -0.555% [at 116 µM]

Oc1ccc(Cl)cc1Cc1ccccc1
activity change, positive = activation (at 57.5 µM (top of the series)): inactive: -16.8% | activity change, positive = activation (at 116 µM (top of the series)): inactive: -35.2%

c1ccc(N2CCNCC2)cc1
activity change, positive = activation [1]: inactive: -3.52%

CC1=C(O)C(=O)C=C2C1=CC=C1[C@@]2(C)CC[C@@]2(C)[C@@H]3C[C@](C)(C(=O)O)CC[C@]3(C)CC[C@]12C
activity change, positive = activation [1]: inactive: -93.1%

CCN(CC)C(=O)c1ccc(NC(=O)CCn2nc(-c3ccc(C)cc3)c3ccccc3c2=O)cc1
activity change, positive = activation [1]: inactive: -40.6%

Cc1cc(OCC(=O)N2CCN(CCc3ccccn3)CC2)cc(C)c1Cl
activity change, positive = activation [1]: inactive: -4.19%

Oc1cccc2cccnc12
activity change, positive = activation (at 57.5 µM (top of the series)): inactive: -2.51% | activity change, positive = activation (at 116 µM (top of the series)): inactive: -34.5%

CCOc1ccc(CN(CCc2ccc3c(c2)OCO3)Cc2cccc(C)c2)cc1
activity change, positive = activation [1]: inactive: -22.6%

CC(C)(O)C(Cl)(Cl)Cl
activity change, positive = activation [1]: inactive: 2.32%

COc1ccc2[nH]cc(CCN(C(C)C)C(C)C)c2c1
activity change, positive = activation [1]: inactive: -6.57% [at 116 µM]

CCN(CC)C(=O)c1ccc(NC(=O)CCn2nc(-c3ccc(Cl)cc3)c3ccccc3c2=O)cc1
activity change, positive = activation [1]: inactive: 2.34% [at 11.5 µM]

Cc1ccc(Cl)c(O)c1
activity change, positive = activation [1]: inactive: 0.0901%

CN1C[C@@H](NS(=O)(=O)N(C)C)C[C@@H]2c3cccc4c3c(cn4C)C[C@H]21
activity change, positive = activation [1]: inactive: -4.31%

COc1cc(CC(C)N)cc(OC)c1OC (stereo unspecified)
activity change, positive = activation [1]: inactive: -9.64% [at 116 µM]

COc1ccc(CN2CCN(C(=O)COc3ccccc3)CC2)c(OC)c1
activity change, positive = activation [1]: inactive: -30.8% [at 57.5 µM, percent change from vehicle, -100% = no light]

Cc1cccc(C2CC(=O)Oc3c2c(=O)oc2ccccc32)c1 (stereo unspecified)
activity change, positive = activation [1]: inactive: -11.6%

Cc1c(N)nc([C@H](CC(N)=O)NC[C@@H](N)C(N)=O)nc1C(=O)N[C@H](C(=O)N[C@@H](C)[C@H](O)[C@@H](C)C(=O)N[C@@H](C(=O)NCCc1nc(-c2nc(C(=O)NCCC[S+](C)C)cs2)cs1)[C@@H](C)O)C(O[C@H]1O[C@H](CO)[C@H](O)[C@@H](O)[C@@H]1O[C@H]1O[C@H](CO)[C@@H](O)[C@H](OC(N)=O)[C@H]1O)c1cnc[nH]1 (stereo partly specified)
activity change, positive = activation [1]: inactive: -32.3%

C[C@]12CC[C@H]3[C@@H](CCC4=CC(=O)CC[C@@]43C)[C@H]1CC[C@H]2OC(=O)CCC1CCCC1
activity change, positive = activation [1]: inactive: -8.14%

c1cc2c(cc1[C@H]1OC[C@H]3[C@H]1CO[C@H]3c1ccc3c(c1)OCO3)OCO2
activity change, positive = activation [1]: inactive: -18.1%

CCCCOC(=O)c1ccccc1C(=O)OCc1ccccc1
activity change, positive = activation [1]: inactive: -8.17% [at 116 µM]

O=C(O)CCCc1ccc(N(CCCl)CCCl)cc1
activity change, positive = activation [1]: inactive: -7.41% and inactive: -12.6%

C#CCOC(C(=O)OCCN(C)C)(c1ccccc1)c1ccccc1
activity change, positive = activation [1]: inactive: 1.25%

COc1cccc(C(=O)CCN[C@@H](C)[C@H](O)c2ccccc2)c1
activity change, positive = activation [1]: inactive: -7.21%

Cc1cccc(Cn2cccc(C(=O)Nc3cc(C)on3)c2=O)c1
activity change, positive = activation [1]: inactive: -13.6%

COc1ccc(C(=O)N2CCCC2=O)cc1
activity change, positive = activation [1]: inactive: -17.1% and inactive: -6.32%

COc1ccc(OC)c(CC(C)N)c1 (stereo unspecified)
activity change, positive = activation [1]: inactive: -13.7% [at 116 µM]

CN1C(=S)CN=C(c2ccccc2)c2cc(Cl)ccc21
activity change, positive = activation [1]: inactive: -11.9%

C[C@]12CC[C@@H]3[C@@H](CCC4=CC(=O)CC[C@@H]43)[C@@H]1CC[C@@H]2OC(=O)CCc1ccccc1
activity change, positive = activation [1]: inactive: -2.75%

Cc1cccc(-n2c(/C=C/c3c[nH]c4ccccc34)nc3ccccc3c2=O)c1
activity change, positive = activation [1]: inactive: -40.3%

CSc1ccc(CN2CCN(C(=O)COc3cccc(C)c3)CC2)cc1
activity change, positive = activation [1]: inactive: -36.3%

O=C1c2ccccc2C(=O)C1C(=O)C(c1ccccc1)c1ccccc1
activity change, positive = activation [1]: inactive: -2.79% [at 57.5 µM, percent change from vehicle, -100% = no light]

COc1ccc(-c2nc(CN3C(=O)CN=C(c4ccccc4)c4ccccc43)c(C)o2)cc1
activity change, positive = activation [1]: inactive: -12.3%

C[N+]1(CCF)[C@@H]2CC[C@H]1CC(OC(=O)C(O)(c1ccccc1)c1ccccc1)C2 (stereo partly specified)
activity change, positive = activation [1]: inactive: -4.26%

Nc1ccncc1
activity change, positive = activation [1]: inactive: 1.08%

NC1(c2ccccc2)CCCCC1
activity change, positive = activation [1]: inactive: -25.8% [at 116 µM]

CO/C=C(/C(=O)OC)c1ccccc1Oc1cc(Oc2ccccc2C#N)ncn1
activity change, positive = activation [1]: inactive: -47% [at 116 µM]

Cc1c(C(=O)Nc2cccc(C(F)(F)F)c2)cc(-c2ccccc2)n1CCCN1CCOCC1
activity change, positive = activation [1]: inactive: -17.3%

Cc1ncc2n1-c1ccc(Cl)cc1C(c1ccccc1F)=NC2
activity change, positive = activation [1]: inactive: -16.1%

O=C(O)c1cc(Oc2ccc(C(F)(F)F)cc2Cl)ccc1[N+](=O)[O-]
activity change, positive = activation [1]: inactive: -7.46% [at 57.5 µM, percent change from vehicle, -100% = no light]

CSc1ccc(/C=C/c2nc3ccccc3c(=O)n2-c2cccc(Cl)c2C)cc1
activity change, positive = activation [1]: inactive: -2.15% [at 57.5 µM, percent change from vehicle, -100% = no light]

Cc1cc(OCC(=O)N2CCN(CCc3ccncc3)CC2)ccc1Cl
activity change, positive = activation [1]: inactive: -24.5%

CC(C)=CC1C(C(=O)OCc2cccc(Oc3ccccc3)c2)C1(C)C (stereo unspecified)
activity change, positive = activation [1]: inactive: 0.95%

Cc1ccc(NC(=O)N(Cc2ccc3c(c2)OCO3)C2CCN(Cc3ccccc3)CC2)cc1C
activity change, positive = activation [1]: inactive: -22.3%

Nc1ccc(Sc2ccc(N)cc2)cc1
activity change, positive = activation [1]: inactive: 7.83% [at 116 µM]

Cc1nnc2n1-c1sc(CCc3ccc(CC(C)C)cc3)cc1C(c1ccccc1Cl)=NC2C (stereo unspecified)
activity change, positive = activation [1]: inactive: -33%

COc1ccc(-n2c(/C=C\c3ccccc3F)nc3ccccc3c2=O)c(OC)c1
activity change, positive = activation [1]: inactive: -17%

N#Cc1cc2c(nc1SCC(=O)Nc1ccc(C(F)(F)F)cc1)C1CCN2CC1
activity change, positive = activation [1]: inactive: -43.1%

CCOC(=O)NC(C)(C)Cc1ccc(Cl)cc1
activity change, positive = activation [1]: inactive: -2.5%

CCN[C@@H](C)Cc1cccc(C(F)(F)F)c1
activity change, positive = activation [1]: inactive: -8.87%

CNC(=O)NC(O)C(Cl)(Cl)Cl (stereo unspecified)
activity change, positive = activation [1]: inactive: -9.07%

CCC(=O)OC1(c2ccccc2)CCN(C)CC1
activity change, positive = activation [1]: inactive: 20.9% [at 116 µM]

COc1ccc(OC)c(C(c2c(O)c3ccccc3oc2=O)c2c(C)n(C)n(-c3ccccc3)c2=O)c1 (stereo unspecified)
activity change, positive = activation [1]: inactive: -7.9% [at 57.5 µM, percent change from vehicle, -100% = no light]

CCc1cccc(NC(=O)CN2C(=O)CN=C(c3ccccc3F)c3cc(Cl)ccc32)c1
activity change, positive = activation [1]: inactive: -27.6%

CC(C)(O)C(=O)Nc1ccc([N+](=O)[O-])c(C(F)(F)F)c1
activity change, positive = activation [1]: inactive: -29.4%

Cc1ccc2c(c1)C1CN(C)CCC1N2 (stereo unspecified)
activity change, positive = activation [1]: inactive: -13.6% [at 25.1 µM]

N#Cc1cc2c(nc1SCC(=O)Nc1ccc(Cl)c(C(F)(F)F)c1)C1CCN2CC1
activity change, positive = activation [1]: inactive: -62.8%

CCOC(=O)c1cncn1C(C)c1ccccc1 (stereo unspecified)
activity change, positive = activation [1]: inactive: -4.93%

CCOC(=O)c1cncn1[C@H](C)c1ccccc1
activity change, positive = activation [1]: inactive: -11.3%

CNC(=O)Oc1cccc2ccccc12
activity change, positive = activation [1]: inactive: -3.77%

COc1ccc(NC(=O)c2cccn(Cc3ccc(Cl)cc3)c2=O)c(OC)c1
activity change, positive = activation [1]: inactive: -49.7%

C[C@]12Cc3cn[nH]c3C[C@@H]1CC[C@@H]1[C@@H]2CC[C@@]2(C)[C@H]1CC[C@]2(C)O
activity change, positive = activation [1]: inactive: -5.86%

CC1=C(C(=O)O)N2C(=O)[C@@H](N)[C@H]2SC1
activity change, positive = activation [1]: inactive: -4.31% [at 25.1 µM]

CC(O)(CS(=O)(=O)c1ccc(F)cc1)C(=O)Nc1ccc(C#N)c(C(F)(F)F)c1 (stereo unspecified)
activity change, positive = activation [1]: inactive: -31.5%
